Here are results for 83 compounds from PubChem BioAssay AID1346428 (National Center for Advancing Translational Sciences (NCATS), 2018).

Each structure is given as a SMILES string. Hit rate of the full screen: of about 48,000 compounds, about 1,200 (2.5%) were called active. About 2% were inconclusive and are not listed.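 Rule for the calls: active = activation of at least 60% and not above a set upper limit (about 1 call in 100 departs from these limits); inconclusive = activation of 40% to 60%, or above that upper limit; inactive = activation under 40%.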 Some of the results follow.

The assay concerns the target Probable G-protein coupled receptor 32 (Homo sapiens) (UniProt O75388). Briefly: qHTS for Agonists of Human Resolvin D1 Receptor DRV1. Note: 0% is about no effect. Conditions: CHO-K1 GPR32 beta-arrestin PathHunter luminescence, 90 min; at 76.9 µM; hits give high values; zero percent set by DMSO-only wells. In short, it runs like this: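 GPR32 activation in stably transfected CHO-K1 cells, detected as beta-arrestin recruitment by enzyme-fragment complementation. Compound exposure: 90 min, 37 °C.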
Sequence of UniProt O75388 (O75388 whole entry, looked up, the tested form may be a part): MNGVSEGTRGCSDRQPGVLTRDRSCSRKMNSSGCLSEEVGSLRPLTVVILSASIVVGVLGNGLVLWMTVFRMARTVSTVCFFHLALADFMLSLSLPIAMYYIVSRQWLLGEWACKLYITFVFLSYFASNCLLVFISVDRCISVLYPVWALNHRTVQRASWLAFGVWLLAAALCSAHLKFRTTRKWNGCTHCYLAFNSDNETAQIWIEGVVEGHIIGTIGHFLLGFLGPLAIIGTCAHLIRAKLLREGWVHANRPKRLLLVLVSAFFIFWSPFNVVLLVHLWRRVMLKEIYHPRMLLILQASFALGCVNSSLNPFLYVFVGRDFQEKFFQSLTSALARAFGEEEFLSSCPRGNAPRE
Background: In qHTS, concentration-response curves come from the screen itself.
For `Cc1ccc(NC(=O)C2CCN(S(=O)(=O)c3ccc4c(c3)CCCC(=O)N4)CC2)c(Br)c1`, the activation is inactive: -3.52%.
In the case of `COc1ccc(NC(=O)CN2CCCN(Cc3ccccc3)S2(=O)=O)cc1` it was inactive: -5.2%.
In the case of `O=C(CSc1nc2ccccc2nc1Cc1ccc(Cl)cc1)N1CCCCC1` it was inactive: -7.27%.
For the compound `CCCCOC(=O)c1ccc(NC(=O)c2ccc3c(c2)CCCN3S(C)(=O)=O)cc1`, the activation was inactive: -9.73%.
With `O=C(Cn1c(=O)n(-c2ccccc2)c(=O)c2c3c(sc21)CCC3)c1ccc(Br)cc1`, the activation is inactive: -10.6%.
Take `CCOC(=O)c1c(C)oc2ccc(N(C(=O)c3ccncc3)S(=O)(=O)c3ccc(F)cc3C)cc12`: the activation is inactive: -12.7%.
Regarding `Cc1ccc2nc(-c3ccc(Cl)c(NC(=O)COc4ccc([N+](=O)[O-])cc4)c3)oc2c1`, the activation was inactive: -4.79%.
Regarding `COc1cccc(NC(=O)c2cnc(SCC(=O)N3CCCc4ccccc43)n(C)c2=O)c1`, the activation is inactive: -13.5%.
In the case of `COc1ccccc1N1CCN(S(=O)(=O)c2cc(C(=O)Nc3ccc(Oc4ccccc4)cc3)ccc2F)CC1` it was inactive: -3.4%.
As for `Cc1cccc(CS(=O)(=O)Cc2ccc(C(=O)NCc3ccc(F)cc3)o2)c1`, the activation was inactive: -7.21%.
In the case of `CC(C)CCNC(=O)CCCn1c(=O)c2cccn2c2ccccc21`, the activation is inactive: -13.6%.
`CCN(C(=O)c1cc2c(=O)oc3ccccc3c2s1)c1ccccc1F`: the activation is inactive: 13.2%.
In the case of `Cc1noc(-c2ccc(-c3noc(-c4ccc(Cl)cc4)n3)cc2)n1` it was inactive: 9.87%; in that of `Cc1cc(C)cc(NC(=O)CN2C(=O)c3ccccc3Sc3ccc(C(=O)N4CCCC4)cc32)c1`, inactive: -17.6%.
As for `Cc1ccc(C)c(CN2CCCN(Cc3ccccc3C)S2(=O)=O)c1`, the activation was inactive: -26.4%.
In the case of `COc1ccccc1NC(=O)CSc1nnc2c(n1)[nH]c1ccccc12` it was inactive: 3.53%; in that of `O=C(CN1C(=O)CCc2cc(Br)ccc21)Nc1ccc(OC(F)(F)F)cc1`, inactive: -7.78%.
In the case of `CCOC(=O)c1ccc(Nc2c(-c3ccc(N(C)C)cc3)nc3nc[nH]n23)cc1` it was inactive: -27%; in that of `COc1ccc(NC(=O)c2cnc3cc(C)ccn3c2=O)c(OC)c1`, inactive: 4.1%.
As to `COc1cccc(CNC(=O)c2nn(C)c3c2CSc2ccccc2-3)c1`, the activation was inactive: -14.4%.
Take `COc1ccc(Cn2c(=O)n(-c3ccc(C)cc3)c(=O)c3c2c2cc(C)ccc2n3C)cc1`: the activation is inactive: 14%.
For `Cc1ccc(-n2nc(CO)c(C(=O)NCc3cccnc3)n2)cc1C`, the activation was inactive: -11.2%.
Take `COc1ccc(-c2noc(-c3nnn(-c4ccc(C)cc4C)c3C)n2)cc1`: the activation is inactive: -12.1%.
With `COc1ccc(NC(=O)CSC2=Nc3ccccc3C3=NC(CCC(=O)NC4CCCCC4)C(=O)N23)cc1Cl` (stereo not drawn), the activation was inactive: -9.87%.
As for `COc1ccc(S(=O)(=O)c2cn(C)c3cc(N4CCCCCC4)c(F)cc3c2=O)cc1`, the activation is inactive: 0.282%.
For the compound `CCOC(=O)c1cc(NC(=O)c2ccccc2)c(=O)n2c1oc1ccc(Cl)cc12`, the activation is inactive: -0.0293%.
In the case of `CCOc1ccccc1CNS(=O)(=O)c1ccc(-c2cnc(C3CC3)o2)cc1` it was inactive: 8.97%.
As to `Cc1ccc(NC(=O)CSc2nncn2C)c(C)c1`, the activation is inactive: -3.36%.
Consider `O=C(Nc1cc(F)ccc1F)C1CCN(C(=O)c2cnn(-c3ccccc3)c2-n2cccc2)CC1`, for which the activation was inactive: 23.4%.
Take `COc1ccc(Cl)c2sc(NC(=O)c3ccc(S(=O)(=O)N4CCCC4)cc3)nc12`: the activation was inactive: 9.83%.
In the case of `COc1ccc(OC)c(C2CC(=O)Nc3c2c(=O)n(C)c2ncnn32)c1` (stereo not drawn) it was inactive: -11.3%; in that of `COc1ccccc1NC(=O)CSCc1cc(=O)c2cccc(Cl)c2[nH]1`, inactive: 32.2%.
In the case of `O=C(CSC1=Nc2ccccc2C2=NC(Cc3ccccc3)C(=O)N12)Nc1cccc(Cl)c1` (stereo not drawn) it was inactive: -22.6%; in that of `COc1ccccc1Cn1c(C2CC(=O)N(c3ccccc3OC)C2)nc2ccccc21` (stereo not drawn), inactive: -4.6%; in that of `NCc1ccc(S(N)(=O)=O)cc1`, inactive: -5.6%.
`CCN1C(=O)c2ccccc2Sc2ccc(NC(=O)Nc3cc(C)cc(C)c3)cc21`: the activation was inactive: -6.68%.
As to `CCOC(=O)c1c(-c2ccccc2)oc2ccc(NS(=O)(=O)c3ccc(C)cc3)cc12`, the activation was inactive: -11.2%.
In the case of `CCc1ccc2occ(CC(=O)Nc3c(C(=O)c4ccccc4)oc4ccccc34)c2c1`, the activation was inactive: -8.36%.
As for `Cc1ccc(CNC(=O)c2cc3sc(Cl)cc3n2C)cc1`, the activation is inactive: 4.97%.
Regarding `Cc1ccnc(NC(c2cccc(O)c2)c2ccc3ccc(C)nc3c2O)c1` (stereo not drawn), the activation was inactive: -51.9%.
Regarding `COc1ccc(-c2nc3n(n2)C(c2ccc(O)cc2)C(C(=O)Nc2cccnc2)=C(C)N3)cc1OC` (stereo not drawn), the activation was inactive: 4.33%.
As to `O=C(Nc1cccc(Br)c1)c1cc(S(=O)(=O)N2CCCCC2)c[nH]1`, the activation was inactive: -2.03%.
Turning to `Cc1cc(S(=O)(=O)Nc2cc3c(cc2N2CCOCC2)n(C)c(=O)c(=O)n3C)ccc1F`, the activation is inactive: -0.244%.
Take `COC(=O)CN1C(=O)C(O)(c2c(C)[nH]c3ccccc23)c2ccccc21` (stereo not drawn): the activation is inactive: -8.99%.
As to `COc1ccccc1CNc1nccn(-c2ccc(F)cc2)c1=O`, the activation is inactive: 30.2%.
`CCCn1c2ccccc2c2cnn(CC(=O)NCC3CCN(Cc4ccccc4C)CC3)c(=O)c21`: the activation is inactive: -5.82%.
`Cc1cccc(C(=O)N2CCc3cc(CNC(=O)c4ccco4)ccc32)c1`: the activation was inactive: 3.42%.
Take `CCOCCc1nn2c(=O)cc(COC(=O)c3ccc(NC(=O)c4cccs4)cc3)nc2s1`: the activation was inactive: 5.35%.
`CCCNC(=O)c1ccc(Cn2c(SCC(=O)NC(C)C)nc3ccccc3c2=O)cc1`: the activation is inactive: -6.68%.
As for `CCc1oc2ccccc2c1C(=O)c1cc(Br)c(O)c(Br)c1`, the activation is inactive: 37.6%.
As for `CCOc1ccc(CCNC(=O)NCc2noc3ccc(C)cc23)cc1`, the activation was inactive: -7.03%.
In the case of `COc1ccc(C(=O)Nc2nc(-c3ccc(Br)cc3)ns2)cc1` it was inactive: 1.59%.
With `Cc1csc2nc(COc3ccc(NC(=O)c4ccccc4F)cc3)cc(=O)n12`, the activation is inactive: 12.3%.
Consider `O=C(NC1CC(=O)N(c2ccc(F)cc2)C1)c1ccc(S(=O)(=O)N2CCOCC2)cc1` (stereo not drawn), for which the activation is inactive: 0.543%.
For the compound `COc1ccc(NC(=O)Cn2c(=O)c3cccn3c3ccccc32)cc1`, the activation was inactive: -13.5%.
On to `Cn1c(=O)c2c(-c3ccccc3)n3c(c2n(C)c1=O)C(c1ccc([N+](=O)[O-])cc1)Nc1ccccc1-3` (stereo not drawn), for which the activation was inactive: -11.9%.
Consider `COc1ccc(S(=O)(=O)NCCc2sc(-c3cccnc3)nc2C)cc1`, for which the activation is inactive: 24.2%.
Turning to `CCOCCCN1C(=O)CN(C2CCCCCC2)C(=O)C1c1ccc(OCC)c(OC)c1` (stereo not drawn), the activation was inactive: -14.5%.
In the case of `CCOC(=O)c1c(NC(=O)c2ccc(S(=O)(=O)N3CCCC(C)C3)cc2)sc2c1CC(C)(C)NC2(C)C` (stereo not drawn) it was active: 120%.
`Cc1ccc(-n2ncc3c(Nc4ccc5c(c4)OCCO5)ncnc32)cc1Cl`: the activation is inactive: 0.551%.
In the case of `Cc1ccc(C(=O)c2oc3ccccc3c2NC(=O)c2cc(-c3ccccc3)on2)cc1` it was inactive: 0.254%.
With `CCOC(=O)c1[nH]c(C)c(CCC(=O)N2CCN(c3ccc(OC)cc3)CC2)c1C`, the activation is inactive: -18.6%.
In the case of `CCCCN(C)S(=O)(=O)c1ccc(C(=O)Nc2sc3c(c2C(=O)OCC)CCN(C(C)C)C3)cc1`, the activation is inactive: -27.4%.
In the case of `CCOC(=O)C1CCN(C(=O)C2CCN(S(=O)(=O)c3c(C)noc3/C=C/c3ccc(C)cc3)CC2)CC1`, the activation is inactive: -20.7%.
Take `CCSc1nc(-c2ccccc2)nc2c1Cc1c(CO)cnc(C)c1O2`: the activation is inactive: 3.43%.
With `COc1cc(OC)cc(C(=O)Nc2ccc3c(c2)CCCN3C(=O)c2cccs2)c1`, the activation is inactive: -18.5%.
Consider `CCCC1=Nc2cc(C(=O)NCc3ccccc3)ccc2Sc2ccccc21`, for which the activation was inactive: -22.7%.
As for `O=C1OC2(c3ccccc31)c1cc(Br)c(O)c(Br)c1Oc1c2cc(Br)c(O)c1Br`, the activation is active: 68.3%.
Take `COc1ccc(NC(=O)c2cccc3c(=O)c4c([nH]c23)CCCC4)cc1`: the activation was inactive: 1.5%.
In the case of `O=C(O)CCC(=O)N1CCc2cc(S(=O)(=O)NCc3ccc(F)cc3)ccc21` it was inactive: 8.03%; in that of `COc1ccccc1Cc1nc2ccccc2nc1SCC(=O)NCc1ccc(C)cc1`, inactive: -13.4%; in that of `COc1ccc(C)cc1NC(=O)Cn1nc(N2CCN(c3ccccc3OC)CC2)ccc1=O`, inactive: 3.29%.
In the case of `Cc1noc(C)c1S(=O)(=O)N(CC(=O)NCc1ccccc1)c1ccc(C(C)C)cc1` it was inactive: -15.8%; in that of `COc1ccccc1CNC(=O)C(=O)NCC(c1cccnc1)N1CCN(c2ccccc2)CC1` (stereo not drawn), inactive: -11.3%; in that of `COc1ccc(-c2nc(SCC(=O)NC3CCCC3)c(-c3ccc(F)cc3)[nH]2)cc1OC`, inactive: -20.6%.
On to `O=C(COCc1cc(-c2ccco2)on1)Nc1cc(Cl)ccc1O`, for which the activation is inactive: -4.88%.
In the case of `CC(=C(CCOC(=O)C(C)C)SSC(CCOC(=O)C(C)C)=C(C)N(C=O)Cc1cnc(C)nc1N)N(C=O)Cc1cnc(C)nc1N` it was inactive: 24.4%; in that of `O=C(Nc1ccc2oc(-c3cccnc3)nc2c1)c1ccccc1F`, inactive: 6.48%; in that of `CC(=O)N1CCCc2cc(S(=O)(=O)Nc3ccc(Cl)cc3F)ccc21`, inactive: -12.1%.
In the case of `COCCNC(=O)CCn1nc(-c2ccc(Cl)cc2)c2ccccc2c1=O` it was inactive: -11.9%; in that of `COc1ccc(CC(=O)N2CCc3c([nH]c4ccccc34)C2c2ccc(SC)cc2)cc1` (stereo not drawn), inactive: -28%; in that of `CC1CCN(C(c2ccc(F)cc2)c2sc3nc(-c4ccco4)nn3c2O)CC1` (stereo not drawn), inactive: 24.5%.
On to `COc1ccc(C(=O)N2CCN(C(=O)COc3ccccc3)CC2)cc1OC`, for which the activation was inactive: -0.0605%.
